# In PubChem BioAssay AID686979 (National Center for Advancing Translational Sciences (NCATS), 2013):
# Screen size: about 420,000 compounds; about 50,000 (12%) were called active. This list was built around the results that the source calls inconclusive (neither active nor inactive); the mix of calls is not that of the screen. Calls come from the whole dose curve; as a rule, active = well fitted inhibition curve with a large enough effect; inconclusive = small, poorly fitted or top-dose-only effect; inactive = flat fitted curve, though single readings scatter. Potencies of inconclusive entries are left out as doubtful fits.
# Experiment: qHTS for Inhibitors of human tyrosyl-DNA phosphodiesterase 1 (TDP1): qHTS in cells in presence of CPT; note: nearly all actives have a fitted effect of over 55% in size
# Conditions: chicken DT40 Tdp1-/-;hTDP1 cells + 20 nM CPT, ATP luminescence, 48 h; activity change, negative = growth inhibition: at 46.2 µM (top of the series) unless noted
# Method in brief: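 Cell growth measured by CellTiter-Glo luminescence after a minimum 48 h, 37 C compound exposure with 20 nM CPT in Tdp1-knockout DT40 cells stably expressing hTDP1, seeded 400/well; qHTS titration format.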
# % is set by controls: 0 for no effect and ±100 for the full control effect; potency is the fitted concentration of half-maximal effect; tags give direction and shape of the fitted curve.
Structure (SMILES),Potency,"activity change, negative = growth inhibition"
COCCCn1c(C)cc(C(=O)CN2c3cccc4cccc(c34)S2(=O)=O)c1C,active: 29.1 µM,–
CCC(C(=O)NCCCN1CC(C)CC(C)C1)n1ncn2c(cc3occc32)c1=O (centres undefined),–,inactive: -3.55%
O=C(c1cnn(Cc2ccccc2)c1)N1CCN(S(=O)(=O)/C=C/c2ccccc2)CC1,"inconclusive [inhibitor, single point]",–
CC(=O)Oc1ccc(C(=O)Nc2cccc3c2CCCC3)cc1,–,inactive: 2.76%
Nn1cnnc1N/N=C/c1cc(Br)cc(Br)c1O,"inconclusive [inhibitor, single point]",–
COc1cc(OC)cc(-c2c(C#Cc3ccsc3)c3cc(-c4cccc5[nH]cc(C=O)c45)ccc3n2C)c1,"inconclusive [inhibitor, single point]",–
Cc1c(Cl)cccc1-n1ncc(C(=O)Nc2ccc(Br)cc2F)c1C1CCNCC1,active: 4.11 µM,–
CCCCNC(=O)c1ccc2c(c1)ncn2-c1cc(OC)ccc1OC,"inconclusive [inhibitor, single point]",–
CCc1ccc2c(c1)C(=O)C(=O)N2CC(=O)Nc1ccc(NC(=O)c2ccccn2)cc1,"inconclusive [inhibitor, single point]",–
Cc1ccc2nc(NC(=O)CSc3nc4c(c(=O)n3C)SC(C)C4)sc2c1 (centres undefined),active: 20.6 µM,–
O=C(C1CCCN1S(=O)(=O)c1cccc2cccnc12)N1CCn2c1nc1ccccc12 (centres undefined),–,inactive: -4.12%
CC1=C[C@H](C)[C@H](c2c(F)cccc2Cl)CC1=O,–,inactive: -9.55%
CC1(C(=O)Nc2ccc3c(c2)OCO3)CCN1C(=O)CCc1ccc(Cl)cc1Cl (centres undefined),"inconclusive [inhibitor, partial curve, poor fit]",–
COc1ccc(CN(C)C(=O)/C=C/[C@H]2O[C@@H](n3cnc4c(N)ncnc43)[C@H](O)[C@@H]2O)cc1OC,–,inactive: -14.1%
CCN1CCCC1CNC(=O)c1cnn(-c2nccc(-c3cccs3)n2)c1C(C)C (centres undefined),"inconclusive [inhibitor, single point]",–
O=C1CCCc2nn(-c3ccccc3)c(-c3ccncc3)c21,"inconclusive [inhibitor, partial curve]",–
CCc1ccc(/C=C2\SC(=S)N(CCC(=O)NCCCN3CCOCC3)C2=O)cc1,"inconclusive [inhibitor, single point]",–
CNC(=S)N(CCc1c(C)[nH]c2ccc(OC)cc12)Cc1cc(OC)c(OC)c(OC)c1,–,inactive: -23.5%
COc1ccc(OC)c(NC(=O)COC(=O)CCC2CCCC2)c1,–,inactive: 23.5%
CCN(CC)CCNC(=O)C(=O)Nc1ccc2c(c1)N(S(=O)(=O)c1cccs1)CCC2,active: 14.6 µM,–
CCOC(=O)C(=CNc1cc(C)nn1-c1ccc(C)cc1)C(=O)OCC,active: 23.1 µM,–
c1ccc(COc2ccc(OCCCNC3CCCC3)cc2)cc1,"inconclusive [inhibitor, single point]",–
COc1ccc2[nH]cc(CCNc3nc(-c4cccnc4)nc4ccccc34)c2c1,active: 23.1 µM,–

Structure (SMILES),Potency,"activity change, negative = growth inhibition"
COc1ccccc1NC1CCCCC1NS(=O)(=O)c1ccccc1 (centres undefined),"inconclusive [inhibitor, single point]",–
O=C(NNC(=S)NC(=O)c1ccccc1Cl)c1cccc([N+](=O)[O-])c1,"inconclusive [inhibitor, single point]",–
Cc1ccc(NC(=O)CNC(=O)c2cccc(Cl)c2)nc1,–,inactive: -19.1%
CCCC(=O)Nc1ccc(C=C(C(C)=O)C(C)=O)cc1,"inconclusive [inhibitor, single point]",–
Cc1ccc([N+](=O)[O-])cc1NC(=O)CNC1CCCCC1,–,inactive: 4.97%
COc1ccc(NC(=O)COC(=O)C2CC(=O)N(c3ccc(C)cc3)C2)cc1 (centres undefined),–,inactive: -11.4%
CCCCc1cc(=O)oc2cc(C)cc(OCC(=O)O)c12,–,inactive: -14.6%
COCC1CCCN(Cc2cn(-c3ccccc3F)nc2-c2cc(C)sc2C)C1 (centres undefined),active: 16.4 µM,–
COC(=O)c1ccc(NC(=O)c2nc(-c3ccc(Cl)cc3)n3c2CCCCC3)cc1,active: 0.731 µM,–
CN1CCN(S(=O)(=O)c2ccc(-c3ccccc3)cc2)CC1,"inconclusive [inhibitor, single point]",–
Cc1nc(N2CCC(C)CC2)c2c(C)c(C(=O)Nc3ccc4c(c3)OCCO4)sc2n1,"inconclusive [inhibitor, single point]",–
CCCCn1c(N)c(N(CC(C)C)C(=O)CN(C)S(=O)(=O)c2ccc(C)cc2)c(=O)[nH]c1=O,"inconclusive [inhibitor, single point]",–
Cc1csc(NC(=O)c2ccc(S(=O)(=O)N3CCCC3)cc2)n1,"inconclusive [inhibitor, single point]",–
Cc1ccc(SCC(=O)NNC(=O)c2ccc(S(C)(=O)=O)cc2)cc1,–,inactive: 4.79%
C[C@@H]1CC=C[C@H]2[C@H]1C(=O)N(Cc1ccccc1)[C@H]2c1ccc(-c2ccc(F)cc2)cc1F,active: 16.4 µM,–
CC1CC(C)CN(S(=O)(=O)c2ccc(NC(=O)c3ccc(=O)[nH]c3)cc2)C1 (centres undefined),active: 3.26 µM,–
Cc1c(C)n(Cc2ccc(Cl)cc2)c2ccc(C(=O)NCCN3CCOCC3)cc12,"inconclusive [inhibitor, single point]",–
O=S(=O)(NC1CC1)c1ccc(Br)cc1N1CCC[C@H]1CO,"inconclusive [inhibitor, single point]",–
CCC(C)NC(=O)Cn1c(=O)n(CCCCCC(=O)NCc2ccccc2Cl)c(=O)c2sccc21 (centres undefined),"inconclusive [inhibitor, single point]",–
O=C(c1cccc(F)c1)N1CCC[C@@]2(CCN(c3ccccc3)C2)C1,"inconclusive [inhibitor, single point]",–
CCOC(=O)C1CCN(c2ncnc3c2cnn3C)CC1,–,inactive: 3.29%
CN(c1ccccc1)S(=O)(=O)c1cccc(NC(=O)C2CC(=O)N(Cc3ccccc3)C2)c1 (centres undefined),active: 16.4 µM,–
CCOC(=O)c1cnc(SCc2ccc(C(C)(C)C)cc2)nc1N,"inconclusive [inhibitor, partial curve, poor fit]",–

Structure (SMILES),Potency,"activity change, negative = growth inhibition"
O=C(CSc1nnc(CNc2ccc(F)cc2)n1-c1ccccc1)N1CCOCC1,–,inactive: -7.27%
CCOc1ccc(S(=O)(=O)N2CCCC(C(=O)NC3CC3)C2)cc1Cl (centres undefined),"inconclusive [inhibitor, single point]",–
NC(=O)SCC(=O)Nc1ccccc1C(=O)O,–,inconclusive: -34.7% [inhibitor]
CCCc1ccc2oc(C(=O)N(C)Cc3nccs3)c(C)c2c1,"inconclusive [inhibitor, single point]",–
CCNC(=O)CCc1nc(-c2ccc(C(C)(C)C)cc2)no1,active: 16.4 µM,–
CCOC(=O)N1CCc2c(sc3c2c(=O)n(CCc2ccccc2)c(=O)n3CC(=O)Nc2ccc(C)cc2)C1,active: 9.2 µM,–
Cc1nc2cc(NC(=O)NCc3ccccc3)ccc2o1,–,inactive: -25.7%
O=C1NC[C@H](Cc2ccccc2)N(C[C@@H]2CCCN2C[C@H](Cc2ccccc2)N2C[C@H](Cc3ccccc3)N(CCc3ccccc3)C(=O)C2=O)C1=O,"inconclusive [inhibitor, single point]",–
COc1ccc(-c2nonc2NC(=O)c2oc3ccc(F)cc3c2C)cc1OC,"inconclusive [inhibitor, single point]",–
COc1cc(NC(=O)N2c3ccccc3Sc3ccccc32)cc(OC)c1,"inconclusive [inhibitor, single point]",–
CN1CCN(c2ccc(Cl)cc2NC(=O)C2COc3ccccc3O2)CC1 (centres undefined),"inconclusive [inhibitor, single point]",–
COc1ccc(C2C(C#N)=C(SC)NC3=C2C(=O)CC(C)(C)C3)cc1 (centres undefined),active: 6.51 µM,–
CCN1CCN(CCNC(=O)c2ccc3nc(-c4cccc(C)c4)c(-c4cccc(C)c4)nc3c2)CC1,active: 16.4 µM,–
Cc1ccccc1-c1ccc(/C=C2/SC(N3CCOCC3)=NC2=O)o1,active: 2.91 µM,–
Fc1ccccc1/C=N/n1c(COc2ccccc2)n[nH]c1=S,–,inactive: 9.44%
COc1ccccc1C(=O)NCC(c1cccnc1)N1CCc2ccccc2C1 (centres undefined),active: 23.1 µM,–
CCOC1=C2[C@@H](CN(S(=O)(=O)c3ccc(C)cc3)[C@H]2c2cccc3ccccc23)[C@H]2C(=O)N(Cc3ccccc3)C(=O)[C@H]2C1,"inconclusive [inhibitor, single point]",–
Cc1cccc(N2CCN(C(=O)CN3C(=O)CSc4c3c(C)nn4-c3ccccc3)CC2)c1C,"inconclusive [inhibitor, single point]",–
CCCOC(=O)c1c(NC(=O)C(C)Sc2nc(-c3ccccc3)cc(C(F)(F)F)n2)sc(C(=O)N(C)C)c1C (centres undefined),"inconclusive [inhibitor, single point]",–
CN1CCc2c(sc(NC(=O)CSc3ccccc3)c2-c2nc3ccccc3s2)C1,"inconclusive [inhibitor, single point]",–
COc1ccc(S(=O)(=O)N2CCC(C(=O)N3CCCCC3)CC2)cc1Cl,"inconclusive [inhibitor, single point]",–
COc1ccc(N2CCN(CCCNC(=O)c3ccc(CS(=O)(=O)c4ccc(OC)cc4)o3)CC2)cc1,"inconclusive [inhibitor, single point]",–
COc1ccc2oc(-c3ccc(NC(=O)c4ccc(N5CCOCC5)c([N+](=O)[O-])c4)cc3)nc2c1,"inconclusive [inhibitor, partial curve]",–
